Source: PMC4336329 (PLoS ONE, 2015)
Screen size: about 310,000 compounds; about 14,000 (4.5%) showed an effect of 50% or more. The effect is printed as a negative number. The list shows a part of the results.

Molecular target: human ether-à-go-go-related gene (hERG) potassium channel (human, UniProt Q12809)
Experiment: primary screen, population patch clamp on CHO cells stably expressing hERG
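Further: peak tail current of the secondary pulse compared with the same well before compound.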

Sequence of human ether-à-go-go-related gene (hERG) potassium channel (Q12809 whole entry, looked up): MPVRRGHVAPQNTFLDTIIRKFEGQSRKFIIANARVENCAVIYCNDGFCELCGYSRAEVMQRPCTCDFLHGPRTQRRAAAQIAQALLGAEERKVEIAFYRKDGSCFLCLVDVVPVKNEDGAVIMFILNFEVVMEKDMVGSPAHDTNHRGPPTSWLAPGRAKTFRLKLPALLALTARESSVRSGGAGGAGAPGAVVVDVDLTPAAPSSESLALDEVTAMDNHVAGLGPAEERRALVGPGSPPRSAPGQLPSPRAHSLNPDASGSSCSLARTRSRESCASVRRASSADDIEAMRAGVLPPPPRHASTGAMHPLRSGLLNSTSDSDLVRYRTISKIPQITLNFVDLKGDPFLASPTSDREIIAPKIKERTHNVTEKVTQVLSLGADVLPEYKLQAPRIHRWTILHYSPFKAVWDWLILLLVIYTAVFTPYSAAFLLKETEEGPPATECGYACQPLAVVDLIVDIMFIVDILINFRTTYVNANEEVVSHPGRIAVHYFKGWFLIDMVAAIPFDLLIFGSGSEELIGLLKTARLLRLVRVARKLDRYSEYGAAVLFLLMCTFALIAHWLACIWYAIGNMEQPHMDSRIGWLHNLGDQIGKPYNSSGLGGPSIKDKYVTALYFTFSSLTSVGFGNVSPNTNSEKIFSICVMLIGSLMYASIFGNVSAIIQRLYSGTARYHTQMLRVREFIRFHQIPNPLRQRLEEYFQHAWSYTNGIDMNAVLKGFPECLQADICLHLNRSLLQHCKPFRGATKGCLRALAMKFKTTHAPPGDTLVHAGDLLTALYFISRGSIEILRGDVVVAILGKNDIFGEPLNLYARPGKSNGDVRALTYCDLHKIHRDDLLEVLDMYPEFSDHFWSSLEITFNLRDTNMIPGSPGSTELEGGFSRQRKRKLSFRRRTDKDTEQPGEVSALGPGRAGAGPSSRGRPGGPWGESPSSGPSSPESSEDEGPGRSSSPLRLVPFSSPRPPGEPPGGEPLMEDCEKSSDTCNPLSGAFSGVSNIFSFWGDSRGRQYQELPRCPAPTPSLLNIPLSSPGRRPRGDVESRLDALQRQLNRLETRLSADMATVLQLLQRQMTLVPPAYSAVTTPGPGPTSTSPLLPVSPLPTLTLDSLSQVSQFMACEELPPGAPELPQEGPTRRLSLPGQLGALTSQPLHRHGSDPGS

Compound	hERG current change (%, negative = inhibition) at 10uM [%]
Cc1ccc(OCC(=O)N2CCN(c3ccc([N+](=O)[O-])c(N4CCOCC4)c3)CC2)cc1	-71.4
CCOC(=O)N(C)OC(=O)Nc1ccc(Cl)c(Cl)c1	-7.36
CCn1c(COc2cccc(OC)c2)nnc1SCC(=O)Nc1cccc(OC)c1	-41.1
O=C(O)c1ccc(NS(=O)(=O)c2ccc(NC(=O)c3ccccc3Cl)cc2)cc1	19
O=C1Nc2cccnc2N(C(=O)CCl)c2ccccc21	8.63
O=C(Cn1cnc2ccccc2c1=O)NCc1ccco1	13.7
Cc1cc(SCC(=O)Nc2cccc(S(=O)(=O)NC3=NCCCCC3)c2)c(C)cc1Br	1.54
CSc1nc2c(cc1C#N)C(=O)CC(C)(C)C2	-13.8
CC(O)c1nc2ccccc2n1CCOc1ccccc1 (stereo not drawn)	5.97
O=C1/C(=C/Nc2cccc([N+](=O)[O-])c2)CCc2ccccc21	-3.67
COc1ccc(NC(=O)CSc2nnc(CNC(=O)c3cccs3)o2)c(OC)c1	14.3
CCC(=O)NC(c1ccc([N+](=O)[O-])cc1)c1c(O)ccc2ccccc12 (stereo not drawn)	-17.9
Cc1cc(C)n(CCNC(=O)CC2C(=O)NCCN2CC2CCCCC2)n1 (stereo not drawn)	1.14
Cc1ccccc1Cn1nc(C)c(NC(=O)C(F)(F)F)c1C	-1.86
Oc1ccc(C(=S)N2CCN(c3cccc(Cl)c3)CC2)cc1	12
Cc1cc(C(=O)Nc2sc(C)c(C)c2C#N)c(C)o1	20.6
CCc1ccc(NC(=O)C(=O)NCCN2CCN(S(C)(=O)=O)CC2)cc1	20.5
COc1ccc(CCC(=O)Nc2nnc(C(F)(F)F)s2)cc1	0.0181
CCOC(=O)c1cc(OC(=O)c2cccs2)n(-c2ccccc2)n1	6.99
CCOC(=O)C1CCN(C(=O)CC2C(=O)N(Cc3ccccc3)C(C)c3nc4ccccc4n32)CC1 (stereo not drawn)	-13
CSc1nsc(SCC(=O)Nc2ccccc2)n1	-1.54
O=C(Nc1nnc(-c2ccncc2)o1)c1ccc(Br)s1	8.03
COC(=O)[C@@H]1CC[C@H](C)[C@@H](c2ccc(C)cc2)N1C(=O)c1ccc(/C=N/O[C@H](C)c2cn([C@@H]3COC[C@H]3O)nn2)cc1	-9.9

Compound	hERG current change (%, negative = inhibition) at 10uM [%]
COc1ccc(CNCCC(c2ccc(OC(C)C)cc2)C(C)C)cc1OC (stereo not drawn)	-74.5
Cc1nnc(NC(=O)CSc2nccn2-c2ccc(F)cc2)s1	-5.7
Cc1nn(C(C)C(=O)NCCCN2CCCCCC2)c(=O)c2c1sc1ccccc12 (stereo not drawn)	-28.1
O=C(/C=C/c1ccccc1[N+](=O)[O-])NCCCN1CCCC1=O	11.7
Cc1ccccc1-c1nnc(SCc2ccccc2F)o1	-9.35
CN1CCN(C(=O)/C(=C\c2ccc3c(c2)OCO3)NC(=O)c2cccs2)CC1	-76.8
CC1=C(C(=O)OCC2CCCO2)C(c2cccc(C(F)(F)F)c2)C2=C(CC(c3ccco3)CC2=O)N1 (stereo not drawn)	6.09
CCCCn1nc(C(=O)N(C)C2CCCCC2)c2ccccc2c1=O	-43.1
CC(=O)N1CCN(c2nc3cc4c(cc3nc2NS(=O)(=O)c2ccccc2)OCCO4)CC1	5.41
Cc1ccc(NC(=O)Cn2nc(C)c3ccccc3c2=O)c(C)c1	10.2
CSc1cccc(NC(=O)c2cnn3ccccc23)c1	-26.1
CCC1(C)Cc2c(sc3c2c(=O)n(-c2ccccc2)c(=O)n3C)CO1 (stereo not drawn)	5.26
CN1CCN(S(=O)(=O)c2ccc(NC(=O)Cc3cccs3)cc2)CC1	-11.4
CCOC(=O)N1CCN(C(=O)c2cccn3c(=O)c4cc(Br)ccc4nc23)CC1	-68.2
NC(=O)C1CCN(C(=O)c2cc3ccccc3cc2O)CC1	-1.13
O=C(CSc1ccccc1)Nc1ccncc1	6.02
CCCCCCN=C(C)c1ccccc1O	20.2
CC(C)CC(c1nnnn1C(C)(C)C)N1CCN(Cc2ccccc2)CC1.Cl (stereo not drawn)	-30.1
CC(C)CCNC(=O)c1cccc(C(=O)NCCC(C)C)c1	14.5
CCOc1ccc(S(=O)(=O)N2CCCCC2)cc1NC(=O)CN1C(=O)NC(CC)(c2ccccc2)C1=O (stereo not drawn)	-15
O=C(NCC1CCCO1)c1nn2cccnc2c1Cl (stereo not drawn)	21.3
CNC(=O)c1c(C)nc(SCC(=O)NCc2ccc(OC)cc2)c(C#N)c1-c1ccco1	-15.1
CCOC(=O)CC1C(=O)NCCN1C(=O)c1sc2ccccc2c1Cl (stereo not drawn)	0.151

Compound	hERG current change (%, negative = inhibition) at 10uM [%]
O=C(NCCO)c1ccc2c(c1)S(=O)(=O)c1ccccc1C2=O	-16.3
Cc1nc(-c2ccc(O)c(O)c2)cs1	-14.8
Cc1ccc(-c2ccc(/C=C(\C#N)C(=O)Nc3cc(C)nn3-c3ccccc3)o2)cc1	-3.49
COc1ccc(Cn2cc(C(=O)c3ccccc3)c(=O)c3cc(OC)ccc32)cc1	-31.3
Cn1cc(CNC(=O)/C=C/c2ccc(Cl)cc2)cn1	-4.23
CCN(CC(=O)NCc1cccs1)C(=O)c1cccc(S(=O)(=O)NC)c1	-12.2
COC(=O)N(C)c1ccc(C(O)(C(=O)OC)C(F)(F)F)cc1 (stereo not drawn)	15.9
Cc1cc(/C=C(/C#N)c2nc3ccccc3[nH]2)c(C)n1-c1ccccc1C(=O)O	15.8
CN(C)[C@@H]1C(=O)C(C(N)=O)=C(O)[C@@]2(O)C(=O)C3=C(O)c4c(O)cccc4[C@@](C)(O)[C@H]3[C@H](O)[C@@H]12	-0.336
Cc1c(Cl)cnc(NC(=O)COC(=O)c2ccc3c(c2)OCO3)c1Cl	6.35
COc1ccc(Br)cc1/C=N/NC(=O)CN1CCCCC1	-4.99
CCCCCn1c(=O)c(C(=O)Nc2ccccc2S(N)(=O)=O)c(O)c2ccccc21	16
CCCN(CCC)C(=O)c1ccc2c(c1)OCO2	1.58
N#CC1=C(N)N2C(=C(C#N)C1c1ccccc1)Sc1ccccc12 (stereo not drawn)	14.5
COc1ccc(/C=C/C(=O)c2ccc3c(c2)OCO3)c(OC)c1	2.4
CC(C)NC(=O)CC1OC(=O)c2ccccc21 (stereo not drawn)	25.9
CSc1ccc(/C=N/n2nnnc2N)cc1	-4.34
O=C(COC(=O)c1ccc(Cl)c(S(=O)(=O)NCc2ccccc2)c1)NCC1CCCO1 (stereo not drawn)	-53
O=C1Nc2ccccc2/C1=C\C(=O)c1ccccc1	11.9
Cc1cnc(CNC(=O)c2ccc(OC3CCN(C(=O)C4CC4)CC3)cc2)cn1	10.3
CC(C)CNC(=O)COC(=O)CCC(=O)c1ccc(Cl)cc1	-3.86
O=C1OC(/C=C/c2ccccc2)=NC/1=C/c1ccco1	1.82
C=CCSc1nc(C)c2cc(C)cc(C)c2n1	9.52

Compound	hERG current change (%, negative = inhibition) at 10uM [%]
Cc1c(-c2csc(N)n2)c2ccccc2n1C	7.81
CC1(C(=O)O)CCC(C(=O)NC2CCCCC2)C1(C)C (stereo not drawn)	8.09
Cc1nc2ncnn2c(C)c1CCC(=O)NCc1ccco1	-6.62
CCCCC1CCC(C(=O)N2CCOCC2)CC1 (stereo not drawn)	-3.15
Clc1ccc(-c2nc(-c3ccncc3)no2)c(Cl)c1	5.58
CCn1c2c(c(C)cc1=O)C(=O)CC(C)(C)C2	19.9
COc1ccc(C(=O)NNC(=O)CSc2nnc(C(C)C)n2C)cc1	6.06
CCOc1ccc(N/C=C/C(=O)c2ccccc2)cc1	13.9
O=C(Nc1ccc(Cl)c(S(=O)(=O)Nc2ccccc2Cl)c1)c1cccs1	-11
CC1(C)Cc2c(C#N)c(NCCO)nc(-c3ccco3)c2CO1	-4.23
Cc1c(C(=O)COC(C)(C)C)[nH]c2ccccc12	4.85
Cc1cc2cc(C)c3nnc(SCC(=O)NCc4ccc5c(c4)OCO5)n3c2cc1C	-20.1
COc1cc(C2N(c3ccc(F)cc3)C(=O)C3CCCN32)cc(OC)c1OC (stereo not drawn)	0.933
COCC1CCCCN1C(=O)c1ccc2oc(CCc3ccccc3)nc2c1 (stereo not drawn)	-5.52
C=CCN=C1NN=C(c2ccc3c(c2)OCCO3)CS1	30.4
CC1=C(C(=O)Nc2ccccc2)SCCO1	14.7
CCCn1c(SCN2C(=O)c3ccccc3C2=O)nc2cc(Cl)ccc2c1=O	16.5
O=C(Nc1ccncc1)c1ccc2ncsc2c1	6.23
O=C(Cn1nnc2c(cnn2-c2ccc(F)cc2)c1=O)Nc1ccccc1C(F)(F)F	8.18
CCC(C)C(NS(=O)(=O)c1ccc(C)cc1)C(=O)Oc1ccc2c3c(c(=O)oc2c1)CCC3 (stereo not drawn)	-0.525
Cc1ccc(N2C(S)=C(C#N)C(=O)NC2c2ccco2)cc1 (stereo not drawn)	16.7
